Measurements published in the supplement of paper PMC7238544.
Where a name gives a salt, the structure may show the parent alone. ± gives the standard deviation of the averaged measurements. The list shows a part of the results.

Experiments:
Conditions in all cases: priming compound concentration 100 µM
hAMSC donor 1 [1] = assay: Hoechst total cell count ratio vs vehicle control; higher = more cells (less toxicity)
hAMSC donor 2 [2] = assay: as above
hAMSC donor 1 [3] = assay: transgenic luciferase activity (RLU/mg protein) fold change vs vehicle control (ratio); higher = more transgene expression
hAMSC donor 2 [4] = assay: as above
hAMSC donor 1 [5] = assay: transfection efficiency (EGFP+ cells / Hoechst count) fold change vs vehicle control (ratio); hAMSC are human adipose-derived mesenchymal stem cells given an EGFP-luciferase plasmid by lipofection; higher = enhanced transfection
hAMSC donor 2 [6] = assay: as above
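Throughout, for Hoechst total cell count ratio vs vehicle control: compound added 30 min before Lipofectamine 3000 lipoplex delivery, triplicate-well means expressed against DMSO vehicle control wells of the same 96-well plate.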
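Throughout, for transfection efficiency (EGFP+ cells / Hoechst count) fold change vs vehicle control: compounds added 30 min before Lipofectamine 3000 lipoplex transfection, triplicate means relative to DMSO vehicle wells on the same plate, luciferase RLU normalized to BCA total protein.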
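Throughout, for transgenic luciferase activity (RLU/mg protein) fold change vs vehicle control: compounds in DMSO added 30 min before Lipofectamine 3000 transfection of pEGFP-Luc in 96-well plates, values are means of triplicate wells over DMSO vehicle wells on the same plate.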

Row | SMILES | Hoechst total cell count ratio (hAMSC donor 1 [1]) | Hoechst total cell count ratio (hAMSC donor 2 [2]) | transgenic luciferase activity (hAMSC donor 1 [3]) | transgenic luciferase activity (hAMSC donor 2 [4]) | transfection efficiency (hAMSC donor 1 [5]) | transfection efficiency (hAMSC donor 2 [6])
1 | COc1ccccc1OCC(O)CN1CCN(CC(=O)Nc2c(C)cccc2C)CC1 (centres undefined) [Ranolazine dihydrochloride] | 1.82 ± 0.26 | 1.13 ± 0.059 | 0.786 ± 0.054 | 0.698 ± 0.012 | 1.09 ± 0.12 | 0.851 ± 0.054
2 | CCOC(=O)[C@H](CCc1ccccc1)N[C@@H](C)C(=O)N1CCC[C@H]1C(=O)O [Enalapril maleate] | 1.07 ± 0.077 | 1.42 ± 0.07 | 0.384 ± 0.025 | 0.66 ± 0.037 | 0.75 ± 0.069 | 0.897 ± 0.056
3 | COc1ccc(OC)c(C(O)CNC(=O)CN)c1 (centres undefined) [Midodrine hydrochloride] | 1.14 ± 0.17 | 1.46 ± 0.038 | 0.818 ± 0.19 | 0.889 ± 0.018 | 0.89 ± 0.066 | 0.961 ± 0.13
4 | CNC(=N)NCCC[C@H](N)C(=O)O [L-NMMA acetate] | 1.12 ± 0.12 | 1.02 ± 0.047 | 0.754 ± 0.3 | 1.04 ± 0.88 | 1.23 ± 0.15 | 1.08 ± 0.12
5 | NCC(=O)CCC(=O)O [Aminolevulinic acid] | 1.04 ± 0.22 | 1.44 ± 0.17 | 0.782 ± 0.024 | 0.63 ± 0.099 | 0.911 ± 0.34 | 0.809 ± 0.14
6 | Cc1cn([C@H]2C=C[C@@H](CO)O2)c(=O)[nH]c1=O [Stavudine] | 1.53 ± 0.16 | 0.774 ± 0.16 | 0.743 ± 0.24 | 0.868 ± 0.28 | 0.878 ± 0.16 | 1.19 ± 0.16
7 | O=C1Nc2ccccc2/C1=C1/Nc2ccccc2C1=O [Indirubin] | 2.04 ± 0.13 | 0.953 ± 0.17 | 1.84 ± 0.33 | 1.75 ± 0.71 | 1.1 ± 0.22 | 1.4 ± 0.35
8 | CN(C)CCCN1c2ccccc2CCc2ccc(Cl)cc21 [Clomipramine hydrochloride] | 0.217 ± 0.087 | 0.0403 ± 0.041 | 0.000622 ± 0.00047 | 0.008 ± 0.0095 | 0.225 ± 0.11 | 0.384 ± 0.67
9 | C[N+]1(C)CCC(OC(=O)C(O)(c2ccccc2)C2CCCC2)C1 (centres undefined) [Glycopyrronium bromide] | 0.847 ± 0.07 | 1.13 ± 0.05 | 1.72 ± 0.48 | 1.94 ± 0.49 | 2.14 ± 0.26 | 1.49 ± 0.23
10 | OCc1cccnc1 [3-Pyridinemethanol] | 1.36 ± 0.08 | 1.19 ± 0.13 | 1.32 ± 0.44 | 1.08 ± 0.33 | 0.771 ± 0.089 | 1.01 ± 0.12
11 | CN(C)CCOC(C)(c1ccccc1)c1ccccn1 (centres undefined) [Doxylamine succinate] | 1.26 ± 0.12 | 0.9 ± 0.29 | 0.964 ± 0.17 | 1.09 ± 0.32 | 0.852 ± 0.15 | 1.18 ± 0.053
12 | Cc1onc(-c2c(Cl)cccc2Cl)c1C(=O)N[C@@H]1C(=O)N2[C@@H]1SC(C)(C)[C@@H]2C(=O)O [Dicloxacillin sodium] | 1.47 ± 0.27 | 1.56 ± 0.48 | 0.959 ± 0.44 | 0.913 ± 0.32 | 0.512 ± 0.069 | 0.894 ± 0.15
13 | CN1CCN2c3ncccc3Cc3ccccc3C2C1 (centres undefined) [Mirtazapine] | 1.49 ± 0.34 | 1.08 ± 0.051 | 0.271 ± 0.13 | 0.597 ± 0.27 | 1.1 ± 0.042 | 1.02 ± 0.14
14 | COc1ccc(CN2CCN(C(c3ccc(F)cc3)c3ccc(F)cc3)CC2)c(OC)c1OC [Lomerizine dihydrochloride] | 0.491 ± 0.064 | 1 ± 0.051 | 0.23 ± 0.2 | 0.06 ± 0.015 | 0.486 ± 0.098 | 0.127 ± 0.035
15 | O=C(CCNNC(=O)c1ccncc1)NCc1ccccc1 [Nialamide] | 1.34 ± 0.18 | 1.3 ± 0.072 | 1.24 ± 0.77 | 0.946 ± 0.17 | 1.16 ± 0.21 | 1.12 ± 0.065
16 | CC(=O)Nc1ccc(CC(=O)O)cc1 [Actarit] | 1.23 ± 0.092 | 1.06 ± 0.13 | 0.623 ± 0.55 | 0.921 ± 0.049 | 0.999 ± 0.28 | 0.974 ± 0.16
17 | CC(=O)OCC(CCn1cnc2cnc(N)nc21)COC(C)=O [Famciclovir] | 1.2 ± 0.26 | 1.13 ± 0.18 | 1.67 ± 0.71 | 0.381 ± 0.064 | 0.999 ± 0.15 | 0.931 ± 0.2
18 | c1ccc2c(CC3=NCCN3)cccc2c1 [Naphazoline hydrochloride] | 1.29 ± 0.093 | 1.42 ± 0.18 | 2.16 ± 1.9 | 0.639 ± 0.11 | 0.721 ± 0.1 | 0.724 ± 0.11
19 | CCCCC1=NC2(CCCC2)C(=O)N1Cc1ccc(-c2ccccc2-c2nnn[nH]2)cc1 [Irbesartan] | 1.57 ± 0.23 | 1.85 ± 0.43 | 16.1 ± 3.5 | 1.13 ± 0.21 | 1.19 ± 0.13 | 1.35 ± 0.055
20 | NS(=O)(=O)c1cc(C(=O)O)c(NCc2ccco2)cc1Cl [Furosemide] | 1.27 ± 0.22 | 1.05 ± 0.11 | 1.41 ± 0.13 | 0.693 ± 0.095 | 0.754 ± 0.27 | 1.21 ± 0.21

Row | SMILES | Hoechst total cell count ratio (hAMSC donor 1 [1]) | Hoechst total cell count ratio (hAMSC donor 2 [2]) | transgenic luciferase activity (hAMSC donor 1 [3]) | transgenic luciferase activity (hAMSC donor 2 [4]) | transfection efficiency (hAMSC donor 1 [5]) | transfection efficiency (hAMSC donor 2 [6])
21 | Nc1ccn([C@H]2CC[C@@H](CO)O2)c(=O)n1 [Zalcitabine] | 1.08 ± 0.086 | 0.919 ± 0.2 | 1.39 ± 0.08 | 1.09 ± 0.2 | 0.937 ± 0.48 | 1.39 ± 0.22
22 | O=C(O)Cc1ccccc1Nc1c(Cl)cccc1Cl [Diclofenac sodium] | 0.896 ± 0.055 | 1.05 ± 0.097 | 1.43 ± 0.51 | 1.38 ± 0.35 | 1.09 ± 0.41 | 1.13 ± 0.14
23 | COc1ccc(Cl)cc1C(=O)NCCc1ccc(S(=O)(=O)NC(=O)NC2CCCCC2)cc1 [Glyburide] | 1.8 ± 0.27 | 1.59 ± 0.27 | 3.59 ± 1.8 | 0.54 ± 0.13 | 1.68 ± 0.42 | 1.38 ± 0.28
24 | O=C(CCCN1CCC(O)(c2ccc(Cl)cc2)CC1)c1ccc(F)cc1 [Haloperidol hydrochloride] | 1.24 ± 0.076 | 0.929 ± 0.072 | 2.6 ± 1.1 | 0.711 ± 0.17 | 1.97 ± 0.36 | 0.667 ± 0.042
25 | CN(C)c1nc(N(C)C)nc(N(C)C)n1 [Altretamine] | 1.11 ± 0.18 | 1.55 ± 0.2 | 2.01 ± 0.59 | 0.621 ± 0.056 | 0.917 ± 0.09 | 0.957 ± 0.14
26 | COc1cc2nc(N3CCN(C(=O)C4COc5ccccc5O4)CC3)nc(N)c2cc1OC (centres undefined) [Doxazosin] | 0.894 ± 0.062 | 0.78 ± 0.15 | 0.449 ± 0.44 | 0.353 ± 0.18 | 0.957 ± 0.42 | 0.431 ± 0.17
27 | Oc1ccc(/C=C/c2cc(O)cc(O)c2)cc1 [Resveratrol] | 1.56 ± 0.3 | 1.48 ± 0.15 | 10.3 ± 1.8 | 1.02 ± 0.21 | 1.7 ± 0.26 | 1.75 ± 0.29
28 | COC(=O)CCc1ccc(OCC(O)CNC(C)C)cc1 (centres undefined) [Esmolol hydrochloride] | 0.91 ± 0.065 | 1.04 ± 0.077 | 3.11 ± 1.8 | 0.737 ± 0.28 | 1.72 ± 0.03 | 1.27 ± 0.062
29 | CCCC1O[C@@H]2C[C@H]3[C@@H]4CCC5=CC(=O)C=C[C@]5(C)[C@H]4[C@@H](O)C[C@]3(C)[C@]2(C(=O)CO)O1 (some centres undefined) [Budesonide] | 1.4 ± 0.13 | 1.34 ± 0.091 | 10.4 ± 4.2 | 0.625 ± 0.033 | 1.54 ± 0.26 | 1.23 ± 0.17
30 | CN(C)CCCSc1ccccc1NC(=O)/C=C/c1ccccc1 [Cinanserin] | 1.1 ± 0.06 | 1.12 ± 0.092 | 0.849 ± 0.41 | 0.39 ± 0.069 | 1.01 ± 0.14 | 0.624 ± 0.094
31 | O=C(O[C@@H]1Cc2c(O)cc(O)cc2O[C@@H]1c1cc(O)c(O)c(O)c1)c1cc(O)c(O)c(O)c1 [Epigallocatechin gallate] | 1.95 ± 0.086 | 1.37 ± 0.051 | 0.0175 ± 0.011 | 0.0395 ± 0.0039 | 0.121 ± 0.062 | 0.0238 ± 0.014
32 | Cc1nc(=O)c2cc(CN(C)c3ccc(C(=O)N[C@@H](CCC(=O)O)C(=O)O)s3)ccc2[nH]1 [Raltitrexed] | 1.43 ± 0.21 | 1.17 ± 0.035 | 1.21 ± 0.34 | 1.06 ± 0.13 | 0.747 ± 0.24 | 0.835 ± 0.11
33 | O=c1cnn([C@@H]2O[C@H](CO)[C@@H](O)[C@H]2O)c(=O)[nH]1 [6-Azauridine] | 1.05 ± 0.032 | 1.13 ± 0.13 | 3.17 ± 1.8 | 1.62 ± 0.088 | 2.76 ± 0.37 | 2.45 ± 0.58
34 | CCCN(CCC)S(=O)(=O)c1ccc(C(=O)O)cc1 [Probenecid] | 1.03 ± 0.073 | 1.38 ± 0.18 | 0.37 ± 0.25 | 1.05 ± 0.12 | 1.23 ± 0.44 | 0.817 ± 0.14
35 | CN1CCc2cc(Cl)c(O)cc2[C@@H](c2ccccc2)C1 | 1.42 ± 0.2 | 1.17 ± 0.21 | 1.52 ± 0.77 | 0.7 ± 0.18 | 1.01 ± 0.19 | 0.636 ± 0.1
36 | O=[N+]([O-])c1cccc2cn[nH]c12 [7-Nitroindazole] | 1.18 ± 0.08 | 1.18 ± 0.075 | 1.29 ± 1.6 | 1.02 ± 0.27 | 0.827 ± 0.12 | 0.732 ± 0.11
37 | CCCc1nc(C(C)(C)O)c(C(=O)OCc2oc(=O)oc2C)n1Cc1ccc(-c2ccccc2-c2nnn[nH]2)cc1 [Olmesartan medoxomil] | 1.38 ± 0.11 | 2.01 ± 0.37 | 0.278 ± 0.16 | 0.503 ± 0.15 | 0.561 ± 0.15 | 0.22 ± 0.041
38 | CC(C)[N+](C)(CCOC(=O)C1c2ccccc2Oc2ccccc21)C(C)C [Propantheline bromide] | 1.34 ± 0.3 | 1.4 ± 0.22 | 0.341 ± 0.14 | 0.216 ± 0.15 | 0.78 ± 0.27 | 0.99 ± 0.13
39 | CC/C(=C(\c1ccccc1)c1ccc(OCCN(C)C)cc1)c1ccccc1 [Tamoxifen] | 0.0503 ± 0.027 | 0.065 ± 0.027 | 0.000882 ± 0.00014 | 0.000715 ± 0.00018 | 0.588 ± 0.7 | 0.147 ± 0.13
